{"source": "PubChem BioAssay AID743279", "about": "(National Center for Advancing Translational Sciences (NCATS), 2014)", "note": "Where “and” joins values, the source holds several entries; their conditions need not be identical. Equal entries are not always repeated. The whole screen tested about 360,000 compounds, of which about 17,000 (4.7%) were called active. Inconclusive means that the source gave no clear call. Such entries were picked first, then a sample of the others. Cut-off read from the data, not from the text of the source: active = activity change below about -50%; inconclusive = mostly about -30% to -49%; inactive = weaker than that. % is set by controls: 0 for no effect and ±100 for the full control effect."}
{"test": "qHTS for Inhibitors of Inflammasome Signaling: IL-1-beta AlphaLISA Primary Screen", "conditions": "THP-1 LPS/ATP IL-1B secretion, 16 h; at 57.5 µM, stronger effect = lower value", "in_short": "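Secreted IL-1B measured by AlphaLISA bead assay after 16 h compound exposure of THP-1 cells; compounds (final up to 57.5 uM) added 1 h before LPS (250 ng/mL) and ATP (1.25 mM) stimulation; lower signal means less secretion.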"}
{"smiles": "O=C(CCCOc1ccc(Cl)cc1Cl)Nc1cc(S(=O)(=O)N2CCOCC2)ccc1N1CCOCC1", "activity change": "inconclusive: -38.2%"}
{"smiles": "CCn1c(SCc2cccc(C)c2)nnc1-c1ccc(C)cc1", "activity change": "inactive: -20.5%"}
{"smiles": "Cc1cccc(N=Nc2cnc(N)s2)c1", "activity change": "active: -64.5%"}
{"smiles": "COc1ccc([N+](=O)[O-])c(S(=O)(=O)c2ccc(Cl)cc2)n1", "activity change": "active: -94.5%"}
{"smiles": "CCOC(=O)CNC(=O)CSc1ncnc2c1nnn2-c1ccc(F)cc1", "activity change": "inconclusive: -33.8%"}
{"smiles": "Cc1cc(C)n(-c2nc(NCC(C)O)c3c4c(sc3n2)COC(C)(C)C4)n1", "note": "(stereo not given)", "activity change": "inactive: -8.75%"}
{"smiles": "O=C(CCCCCn1c(=O)[nH]c2ccccc2c1=O)NCCCN1CCN(c2ccccc2F)CC1", "activity change": "inconclusive: -47.2%"}
{"smiles": "Cc1c(C(=O)NCc2ccco2)sc(=O)n1Cc1ccc(S(C)(=O)=O)cc1", "activity change": "inconclusive: -43%"}
{"smiles": "CC[C@H](C)[C@H]1CNC(=O)C(=O)N1CC1CCN(CCc2ccc(Cl)c(Cl)c2)CC1", "activity change": "inconclusive: -48.6%"}
{"smiles": "COC(=O)C1=CN(c2ccc(OC)cc2)C(N)=C(C#N)C1c1cccc2ccccc12", "note": "(stereo not given)", "activity change": "inactive: 16.3%"}
{"smiles": "CC(NCC(=O)NC(=O)NC1CCCC1)c1ccc(Cl)cc1Cl", "note": "(stereo not given)", "activity change": "inconclusive: -36.2%"}
{"smiles": "CCCC(O)(CCC)C(=O)NN(C(=O)CCl)c1ccccc1", "activity change": "inconclusive: -46.3%"}
{"smiles": "CCOC(=O)C1(CC2CCCCO2)CCN(C(=O)Nc2cccc(SC)c2)CC1", "note": "(stereo not given)", "activity change": "inconclusive: -43.2%"}
{"smiles": "CCOC(=O)C1=CN(Cc2ccco2)S(=O)(=O)N(C)C1c1ccc2ccccc2c1", "note": "(stereo not given)", "activity change": "inconclusive: -31.6%"}
{"smiles": "COc1ccnc(Oc2ccc(F)cc2)c1C(=O)N/C=N/OCc1c(Cl)cccc1Cl", "activity change": "inconclusive: -44.1%"}
{"smiles": "Cc1ccc(NCC(=O)N/N=C/c2cccc(Br)c2)cc1", "activity change": "inconclusive: -49.1%"}
{"smiles": "O=C(CC[C@H]1O[C@@H](n2cnc3c(NC(=O)c4ccccc4)ncnc32)[C@H](O)[C@@H]1O)NCCc1cc2ccccc2[nH]1", "activity change": "inconclusive: -37.7%"}
{"smiles": "Cn1cccc1Cc1nnc(SCC(=O)N2CCc3ccccc32)n1CCc1ccccc1", "activity change": "inconclusive: -33.9%"}
{"smiles": "CCN(CC)CCN(C(=O)c1cccc(N2C(=O)CCC2=O)c1)c1nc2cc3c(cc2s1)OCO3", "activity change": "inconclusive: -32.4%"}
{"smiles": "COc1ccc(C(c2nnnn2C2CCCC2)N2CCN(c3ccccc3)CC2)cc1", "note": "(stereo not given)", "activity change": "inconclusive: -40.8%"}
{"smiles": "CCOc1ccccc1OCCC(=O)N1CCN(S(=O)(=O)c2ccccc2[N+](=O)[O-])CC1", "activity change": "inconclusive: -30.7%"}
{"smiles": "COc1ccc(CCC(C)N2CCC(CO)(Cc3ccccc3)CC2)cc1", "note": "(stereo not given)", "activity change": "active: -56.5%"}
{"smiles": "O=C(NC1CC1)c1sc2ccccc2c1Cl", "activity change": "inconclusive: -36.1%"}
{"smiles": "COc1cc(C2C(C(=O)c3ccc(C)o3)=C(O)C(=O)N2CCN2CCOCC2)ccc1OCCC(C)C", "note": "(stereo not given)", "activity change": "inactive"}
{"smiles": "Cc1c(C(=O)Nc2ccc3c(c2)OCCO3)sc2ncnc(N3CCCCC3C)c12", "note": "(stereo not given)", "activity change": "inconclusive: -44.1%"}
{"smiles": "Cc1nc(N2CCCCC2)sc1C(=O)c1ccc(SCCO)c([N+](=O)[O-])c1", "activity change": "active: -54.4%"}
{"smiles": "CCCS(=O)(=O)c1nc(S(=O)(=O)c2ccc(C)cc2)c(N2CCC(C(N)=O)CC2)s1", "activity change": "inconclusive: -47%"}
{"smiles": "Cc1ccc(OCC(=O)N/N=C\\c2ccco2)c(C)c1", "activity change": "inconclusive: -33.4%"}
{"smiles": "COC(=O)c1nnn(-c2nonc2N)c1CSCCO", "activity change": "inactive: 8.34%"}
{"smiles": "CCOc1ccc(C2c3[nH]c4ccccc4c3C[C@H]3C(=O)N(C4CC4)CC(=O)N23)cc1OC", "note": "(stereo not given in full)", "activity change": "inconclusive: -44.3%"}
{"smiles": "CCOC(=O)CSc1nc(N)c(C#N)cc1C#N", "activity change": "inconclusive: -36.9%"}
{"smiles": "CN(Cc1ccccc1)C(=O)c1cccc(NC(=O)Cc2ccc(NC(=O)C3CCCN(C(=O)C4CCC4)C3)cc2)c1", "note": "(stereo not given)", "activity change": "inactive: 9.26%"}
{"smiles": "Cc1cccc(/C=C2/Sc3ccc(C(=O)NCCN4CCCC4)cc3NC2=O)c1", "activity change": "inconclusive: -38.4%"}
{"smiles": "Cc1ccc(NC(=O)c2cc(CC(C)C)nc3ccccc23)cc1", "activity change": "inconclusive: -39.3%"}
{"smiles": "Cc1c(CCOC(=O)CC23CC4CC(CC(C)(C4)C2)C3)sc[n+]1Cc1ccc([N+](=O)[O-])cc1", "activity change": "inconclusive: -39.7% and inconclusive: -48.2%"}
{"smiles": "Cc1cc(C)c2oc(-c3cccc(NC(=O)c4ccc(F)cc4)c3)nc2c1", "activity change": "inactive: -10.9%"}
{"smiles": "CCOC(=O)c1c(C)[nH]c(C(C)=NNC(=O)c2cccs2)c1C", "activity change": "inactive: -7.94%"}
{"smiles": "COCc1cc(C)nc(SCC[N+](C)(C)CC(=O)Nc2ccccc2)c1C#N", "activity change": "inconclusive: -38.7%"}
{"smiles": "c1csc(CNc2nc(Oc3ccncc3)c3sccc3n2)c1", "activity change": "inconclusive: -45.4%"}
{"smiles": "CCOC(=O)c1sc(NC(=O)c2ccc(Br)o2)cc1C", "activity change": "inconclusive: -48.1%"}
{"smiles": "CC(=O)OCC(=O)[C@@]1(O)CC[C@H]2[C@@H]3CCC4=CC(=O)C=C[C@]4(C)[C@H]3[C@@H](O)C[C@@]21C", "activity change": "inconclusive: -36%"}
{"smiles": "COc1ccc2c(c1)c(C(=O)N/N=C/c1ccc(Cl)cc1)c(C)n2C", "activity change": "inconclusive: -45.2%"}
{"smiles": "CCc1cc2c(=O)c(-c3cnn(-c4ccccc4)c3)coc2c(CN2CCOCC2)c1O", "activity change": "inconclusive: -30.9%"}
{"smiles": "O=C(NCCc1ccc(F)cc1)NC12CC3CC(CC(C3)C1)C2", "activity change": "inconclusive: -34.8%"}
{"smiles": "COCCCN(C(=S)NC(=O)C12CC3CC(CC(C3)C1)C2)c1c(N)n(Cc2ccccc2)c(=O)[nH]c1=O", "activity change": "inactive: 9.77%"}
{"smiles": "O=C(CSc1nnnn1-c1ccccc1)N1CCCc2ccccc21", "activity change": "active: -55%"}
{"smiles": "O=C(Nc1cccc(C2=NCCN2)c1)Nc1cccc(C2=NCCN2)c1", "activity change": "inconclusive: -47.7%"}
{"smiles": "NC(=O)c1ccc(NC(=O)C2COc3ccccc3O2)cc1", "note": "(stereo not given)", "activity change": "inconclusive: -47.5%"}
{"smiles": "C[C@@]12C(=O)Nc3ccc(Cl)cc3C(=O)N1[C@H]1c3ccccc3OC[C@@H]1[C@@H]2c1ccccc1", "activity change": "inconclusive: -47.3%"}
{"smiles": "Cc1ccc(NS(=O)(=O)c2ccc(Br)s2)nc1", "activity change": "inactive: 8.66%"}
{"smiles": "COc1ccc(C2OC(=O)CC2C(=O)NC2CCCC(C)C2C)cc1OC", "note": "(stereo not given)", "activity change": "inactive: 9.04%"}
{"smiles": "CCCCCCC(=O)N1C/C=C\\C(c2ccc(OC)cc2)N(Cc2ccc(F)cc2)C(=O)[C@H]1Cc1ccccc1", "note": "(stereo not given in full)", "activity change": "inactive: -3.84%"}
{"smiles": "CN(C)N=Nc1nc2c([nH]1)c(=O)n(C)c(=O)n2C", "activity change": "inactive: -5%"}
{"smiles": "CC(=O)Nc1cccc(-c2ccnc3c2CC(C)(C(=O)Nc2ccc(Cl)c(C(F)(F)F)c2)O3)c1", "note": "(stereo not given)", "activity change": "active: -66.8%"}
{"smiles": "NC(=O)SCC(=O)Nc1cccc(Cl)c1", "activity change": "active: -61.9%"}
{"smiles": "O=C(/C=C/c1cccc([N+](=O)[O-])c1)N(c1ccccn1)c1ccccn1", "activity change": "inconclusive: -38.2%"}
{"smiles": "CCOC(=O)CCc1c(C)n(CC)c2cc(-c3ccccc3OC)nn2c1=O", "activity change": "inconclusive: -49.7%"}
{"smiles": "CCOC(=O)C1(CCc2ccccc2)CCN(Cc2ccn[nH]2)CC1", "activity change": "inactive: -17.2%"}
{"smiles": "CC(=O)N1Cc2cc(C(=O)NCc3cccc(F)c3)nc(-c3cccc(C4=CCCCC4)c3)c2[C@H]1CCO", "activity change": "inconclusive: -33.8%"}
{"smiles": "CCCCCCCCNS(=O)(=O)CCNCc1ccccc1", "activity change": "inconclusive: -42.6%"}
{"smiles": "Cc1ccc2cc(C#N)c(NCCNC(=S)NCCCN(C)C)nc2c1C", "activity change": "inconclusive: -47.5%"}
{"smiles": "OCC1(Cc2ccc(F)cc2F)CCCN(CCCc2ccccc2)C1", "note": "(stereo not given)", "activity change": "active: -55%"}
{"smiles": "Cc1cccc(C)c1NC(=O)C(c1ccc(Cl)cc1Cl)N1CCCCC1", "note": "(stereo not given)", "activity change": "inconclusive: -44.8%"}
{"smiles": "Cc1ccc(/C=N/N(Cc2ccccc2)c2ccccc2)o1", "activity change": "inactive: -8.52%"}
{"smiles": "CCN(CC)S(=O)(=O)c1ccc(N2CCOCC2)c(NC(=O)COc2ccccc2C)c1", "activity change": "active: -55.8%"}
{"smiles": "CN(C)CCCn1c2c(c(SCC(=O)Nc3ccc4c(c3)OCO4)nc1=O)CCC2", "activity change": "inactive: -11.1%"}
{"smiles": "C[C@H](CO)N1C[C@H](C)[C@@H](CN(C)C(=O)Nc2ccc(C(F)(F)F)cc2)Oc2c(NC(=O)NC3CCCCC3)cccc2C1=O", "activity change": "inconclusive: -40.2%"}
{"smiles": "CCc1ccccc1NC(=O)c1cccc(Oc2ccc([N+](=O)[O-])cc2Cl)c1", "activity change": "inconclusive: -45.1%"}
{"smiles": "O=S(=O)(Nc1cccc(-c2ccc(N3CCCCCC3)nn2)c1)c1ccccc1Cl", "activity change": "inconclusive: -33.1%"}
{"smiles": "COc1ccc(S(=O)(=O)Nc2ccc3c(c2)CCC3)cc1", "activity change": "active: -187%"}
{"smiles": "COc1ccc2[nH]c(C(=O)N3CCC(CO)(Cc4cccc(C(F)(F)F)c4)CC3)c(C)c2c1", "activity change": "inconclusive: -31.2%"}
{"smiles": "S=C(NCc1ccco1)N/N=C/c1ccc(Cl)cc1", "activity change": "inconclusive: -48.8%"}
{"smiles": "CC1=C(C(=O)Nc2ccccc2C)C(c2ccc(C)o2)n2c(s/c(=C/c3ccccc3)c2=O)=N1", "note": "(stereo not given)", "activity change": "inactive: -5.19%"}
{"smiles": "COc1ccc2c(c1)[C@H]1[C@H](CO2)[C@H](c2ccccc2)[C@]2(C)C(=O)Nc3cc(C)ccc3C(=O)N12", "activity change": "inconclusive: -48.8%"}
{"smiles": "Cc1cc(-c2nnc3n2N=C(c2ccc(-c4ccccc4)cc2)CS3)n[nH]1", "activity change": "active: -62.4%"}
{"smiles": "CCOc1cc(/C=C2\\C(=O)N(CCc3ccc(OC)c(OC)c3)C(C)=C2C(=O)OC)ccc1O", "activity change": "inconclusive: -47.9%"}
{"smiles": "CCn1c2ccc(F)cc2c2nnc(SCCN3CCCCC3)nc21", "activity change": "inconclusive: -37.8%"}
{"smiles": "CCn1cc(CN2CCC(C(=O)Nc3cccc(-c4cccc(Cl)c4)c3)CC2)cn1", "activity change": "active: -79.5%"}
{"smiles": "CC1(C)O[C@@H]2C[C@H]3[C@@H]4C[C@H](F)C5=CC(=O)C=C[C@]5(C)[C@H]4[C@@H](O)C[C@]3(C)[C@]2(C(=O)CO)O1", "activity change": "inconclusive: -42.7%"}
{"smiles": "CC(C)CC1Nc2ncnc(N3CCN(c4ccccn4)CC3)c2N(Cc2ccccc2)C1=O", "note": "(stereo not given)", "activity change": "inconclusive: -38% and active: -56.3%"}
